Source: article PMC12136788
Some of the results follow.

T1: UNK ZnF1-6 (called full-length) (human, UniProt Q9C0B0 30-357)
T1 sequence: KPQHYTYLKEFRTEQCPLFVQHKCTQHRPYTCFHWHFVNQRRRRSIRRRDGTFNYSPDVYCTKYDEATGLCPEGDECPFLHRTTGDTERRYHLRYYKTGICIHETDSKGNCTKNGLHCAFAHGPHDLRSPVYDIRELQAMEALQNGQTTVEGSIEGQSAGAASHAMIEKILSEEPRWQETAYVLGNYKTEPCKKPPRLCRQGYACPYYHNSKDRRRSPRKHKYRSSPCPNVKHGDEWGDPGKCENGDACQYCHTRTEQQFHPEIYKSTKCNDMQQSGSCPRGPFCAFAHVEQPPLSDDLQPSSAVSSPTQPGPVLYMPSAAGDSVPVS

B1: ENSG00000198589:be:win_901|CDS|ENSG00000198589|bound_else_gene|NA|bound_elsewhere_windowed (ssRNA)
RNA: GGGAGUUCUACAGUCCGACGAUCAUGGUUACCAUAGUACACAUCUAUAACCGAUGGAAGAAUAGUGAACUUCGAUGUUAUGUGAAUGGUGAGCUGGCUUCCUAUGGAGAGAUAACAUGGUUUGUCAACACUAGCGAUACCUUUCAACAGAGGAUUGAGCAUCA
B2: chr5:14398947:14399058:+|CDS|ENSG00000038382|unk|total|mutant (ssRNA)
RNA: GGGAGUUCUACAGUCCGACGAUCCCCAAAAACCUUAAUUCGAAAGGGUCGAGAACGGCAUCUCUUCCUUUUUGAAAUGUCCUCCGUAUUCCGUAAAGAAGUGAAAGAUUCCAGUGGGAGAAGCAAGUACCUUUAUAAAAGCAACAACAGAGGAUUGAGCAUCA
B3: chr2:219567793:219567894:-|CDS|ENSG00000124006|msi1|total|mutant (ssRNA)
RNA: GGGAGUUCUACAGUCCGACGAUCCCUGCCCCGGAAGCUCGACGUCCUGGAAGGAGAGAAUGCUGUGCUGCCCGUGGAAACUCCCGAGGCCGGGGUCGAGGGACGCUGGAGCCGUGAUGGGGAGGAGCUGCCGGUCAUCUGCCACAACAGAGGAUUGAGCAUCA
B4: chr21:31659700:31659757:+|5pUTR|ENSG00000142168|msi1_unk|FALSE|overlapping (ssRNA)
RNA: GGGAGUUCUACAGUCCGACGAUCCGAGGCGCGGAGGUCUGGCCUAUAAAGUAGUCGCGGAGACGGGGUGCUGGUUUGCGUCGUAGUCUCCUGCAGCGUCUGGGGUUUCCGUUGCAGUCCUCGGAACCAGGACCUCGGCGUGGCCAACAGAGGAUUGAGCAUCA
B5: ENSG00000131238:stop:overlap|stop_codon|ENSG00000131238|stop_codon|NA|stop_codon (ssRNA)
RNA: GGGAGUUCUACAGUCCGACGAUCCUUCACCUCCCAUGAUCAAUCUGAUCUCGGUUGGGGGACAACAUCAAGUGCCUUGUGCAUAGUGGGUAUUCGAUACAUCAUUAUUGAAGGAGUGGAUAUUUGUCAUCUACCACUGUAGGUCAACAGAGGAUUGAGCAUCA
B6: chr3:50299934:50300035:-|3pUTR|ENSG00000114378|unk|total|mutant (ssRNA)
RNA: GGGAGUUCUACAGUCCGACGAUCCGUUGCCCAAGGUUGCACAGCAAGAAAAGGGAGAAGUUGAGAUUCAAACCCAGGCUGUCCCGCUCCGGGGGUACAGCCCUUGCACUCCUACUGAGUUUGUGGUAACCAGCCCUGCACGACCAACAGAGGAUUGAGCAUCA
B7: chr6:107870184:107870285:-|3pUTR|ENSG00000025796|msi1|FALSE|bound_elsewhere (ssRNA)
RNA: GGGAGUUCUACAGUCCGACGAUCUAAUAUUUCCUAUAAAAGGGUGAAAGCAGUUUCUUUCUCUAUAACCUCAAUCACCAGUUUAGUGAGAGCCUUUCUUGGCAGGCAGGAGGCAGUGUCACUGAGGAUUUUUUUCAUUUACUUCAACAGAGGAUUGAGCAUCA
B8: chr1:117959336:117959438:+|CDS|ENSG00000065183|unk|FALSE|unique (ssRNA)
RNA: GGGAGUUCUACAGUCCGACGAUCGAUUAUCUCAAGAGGGAAUGCGAGGCAAAAAGUGAAGUUAUGUUUUUUGCUGAUGCUACUAGCCACUUGGAAGAGAAGAAGAGGAAGAGGAAAAAGAGGGAGAAGUUGAUUCUAACGUUGCAACAGAGGAUUGAGCAUCA
B9: chr11:839720:840371:-|three_prime_utr|ENSG00000177700|control|control|control (ssRNA)
RNA: GGGAGUUCUACAGUCCGACGAUCACUCUGGAAGGAACCAUCCAGUAAAGGUCUUUCAGAACCACUAAGGUCCCAGCCCUCACUAGGAUGUCAGGAGCCAGGUCUAGGCCCAGCUUUCACACUGUGGCAGCCCAGUGAAGCAGACAACAGAGGAUUGAGCAUCA
B10: chr11:95129132:95129233:+|CDS|ENSG00000149218|msi1|FALSE|bound_elsewhere (ssRNA)
RNA: GGGAGUUCUACAGUCCGACGAUCAAUCCUGAAGAACAUUGUCUAUUUCCUGUGGUGUGUUACCAAGCAGGUGAUUAAUGGCAUAGAAAGUUGCCUUUACCGCCUGGGCUCAGCCACCAUCUCAUACUUCAUGGCCAUUGGGGACAACAGAGGAUUGAGCAUCA
B11: chr13:24435276:24435388:-|CDS|ENSG00000102699|unk|FALSE|unique (ssRNA)
RNA: GGGAGUUCUACAGUCCGACGAUCCAAAAGAAAAAUGGAAUUAUCUCAGCCAGAAGUUUCUGAAGAUUUUGAAGAGGAUGGCUUAGGUGUACUACCAGCUUUCACAUCAAAUUUGGAACGUGGAGGUGUGGAAAAGCUAUUGGACAACAGAGGAUUGAGCAUCA
B12: chr14:71588152:71588260:+|CDS|ENSG00000197555|unk|total|mutant (ssRNA)
RNA: GGGAGUUCUACAGUCCGACGAUCGAAAACAUAAAAGAAUCCCGCCGUUCAAGCCAGGAAACCGAAACCUCAAGUUGCCUUGACCGCCUGUCCUCCAAAAGCAGUCCUGUGAGUCAGGGAAGUUCUGUCCGCCUCAAUUCCAAUCAACAGAGGAUUGAGCAUCA
B13: chr12:3284029:3284272:+|3pUTR|ENSG00000011105|msi1|FALSE|unique (ssRNA)
RNA: GGGAGUUCUACAGUCCGACGAUCCAUGUGGGUAUUCCCACAACAGGUUCUGCACACCCCAGUUAUUUCACAGACAUUCCUGCUAGAAACUGUCAGACAAAUACCUCUCUAGUUCGGAUGCUGCUCACUUUCCCCCUUGCUUCUCAACAGAGGAUUGAGCAUCA
B14: chr14:67647084:67651481:-|three_prime_utr|ENSG00000100568|control|control|control (ssRNA)
RNA: GGGAGUUCUACAGUCCGACGAUCGCUCGCCAUCCUGGGAGGCCUGGUUUACUACAAAUUCUUUCGCAGCCAUUGAACUUCUAUAGGGAAGGGUUUGUGGACCAGAACUUUGACCUUGUGAAUGCAUGAUGUUAGGGAUGUGGACAACAGAGGAUUGAGCAUCA

The binders below were run against T1, UNK ZnF1-6 (called full-length) (assay: nsRBNS (natural sequence RNA bind-n-seq); RBNS binding buffer (assumed for nsRBNS): 25 mM Tris pH 7.5, 150 mM KCl, 3 mM MgCl2, 0.01% Triton X-100, 500 ug/ml BSA, 20 U/ml SUPERase-In, 4 C; UNK is unkempt and MSI1 is Musashi-1; names of the RNAs are library labels; protein concentration not given here; high values mean tight binding).

Row | Binder | binding signal [enrichment R]
1 | B1 | 0.547
2 | B2 | 0.448
3 | B3 | 0.893
4 | B4 | 0.818
5 | B5 | 1.21
6 | B6 | 0.518
7 | B7 | 0.552
8 | B8 | 0.838
9 | B9 | 0.546
10 | B10 | 0.508
11 | B11 | 0.442
12 | B12 | 0.759
13 | B13 | 0.687
14 | B14 | 0.965
